# Some of the results follow. These are noisy estimates, calculated here from bound and input reads.
# Target: T1, Pho4 (S. cerevisiae) (UniProt P07270)
# T1 sequence: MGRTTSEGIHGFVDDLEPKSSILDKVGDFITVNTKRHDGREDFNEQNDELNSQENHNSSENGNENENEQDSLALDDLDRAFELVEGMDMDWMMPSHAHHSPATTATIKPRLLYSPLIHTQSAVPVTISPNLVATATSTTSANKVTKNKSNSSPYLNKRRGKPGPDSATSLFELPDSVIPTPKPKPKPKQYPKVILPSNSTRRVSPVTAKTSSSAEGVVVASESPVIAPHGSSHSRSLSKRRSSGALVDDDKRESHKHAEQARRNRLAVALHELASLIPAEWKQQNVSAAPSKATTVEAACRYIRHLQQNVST
# Test: relative binding free energy (BET-seq); higher = weaker binding
# Conditions: reference: library average
row,Sequence,relative binding free energy [kcal/mol]
1,TTCTGCACGTGTTGGG,-0.06
2,GAGGTCACGTGATTGG,0.39
3,TCTGTCACGTGGTACG,0.09
4,TGCAGCACGTGTTTGC,0.01
5,GTTGACACGTGTTTTC,0.04
6,CACGTCACGTGGTGAG,0.15
7,ACGATCACGTGTGTGT,0.08
8,CGTTGCACGTGTGAGT,-0.09
9,CGTATCACGTGATTGT,0.23
10,ATAGCCACGTGGTGAG,-0.14
11,ATGTACACGTGCTGTG,0.03
12,AGTTGCACGTGAGTAG,0.2
13,TTGGACACGTGTTTCA,0.04
14,ATAGCCACGTGGATGT,-0.12
15,GTCAGCACGTGAGGTC,0.37
16,AGGGTCACGTGAAAGG,0.38
17,TGGTCCACGTGGGCGA,-0.12
18,GGATGCACGTGAGTTA,0.36
19,AGATACACGTGGTGTG,-0.12
20,TGGACCACGTGAGTGG,0.05
21,TACATCACGTGTTTGG,0.07
22,GTTTACACGTGGAGTA,0.1
23,AGGATCACGTGGGGCC,0.13

row,Sequence,relative binding free energy [kcal/mol]
1,GTTTGCACGTGTTGGC,0.1
2,GGGGCCACGTGGATTA,-0.02
3,TGGAGCACGTGCGTTT,-0.2
4,AGTTACACGTGAAGTG,0.27
5,AGGGTCACGTGGGATG,0.14
6,TGCTTCACGTGTTTGA,0.21
7,GGTTGCACGTGAGCGT,0.21
8,AAAATCACGTGTGTTA,0.25
9,AGGCTCACGTGGAAGG,0.11
10,ATGCGCACGTGGGAGG,-0.32
11,AAAGTCACGTGATAAT,0.33
12,GGTTCCACGTGTGATG,0.2
13,TTTATCACGTGGCGTG,0.04
14,TACAGCACGTGGTTGT,-0.29
15,AATGGCACGTGGGAGT,-0.14
16,TAAGTCACGTGTTGCG,0.05
17,GGTATCACGTGTTCGG,0.09
18,TTATTCACGTGTTAGA,0.06
19,GAGTGCACGTGGATGA,0.14
20,GTGGCCACGTGTGTCG,0.05
21,TGGGTCACGTGTCGTT,0.03
22,CTGGACACGTGTTGGT,0.04
23,TGTTCCACGTGTTTCT,0.06

row,Sequence,relative binding free energy [kcal/mol]
1,TGTTTCACGTGTGTAG,0.24
2,TCTAGCACGTGGTAGG,-0.03
3,AAGTGCACGTGGTTTG,-0.02
4,TGGACCACGTGTTGGC,0.09
5,ACTGGCACGTGGCGGT,-0.23
6,ACGGTCACGTGCGGTG,0.06
7,TGATTCACGTGGTTGG,0.24
8,TTGCGCACGTGTGTTG,0
9,GTGGTCACGTGTTTTT,0.27
10,AAGCGCACGTGGTTTT,-0.09
11,TGTGCCACGTGTCGTG,-0.14
12,GGAGACACGTGGGCAG,-0.1
13,TAGGGCACGTGGCATA,-0.16
14,TTGTTCACGTGGGGTG,0.14
15,TTGTGCACGTGAGCTC,0.26
16,ATTAACACGTGTTGCG,-0.06
17,CAGGGCACGTGAATTT,0.32
18,AATAGCACGTGGTGTC,-0.1
19,TGTCTCACGTGTGCGT,0.12
20,AGTTGCACGTGTGAGA,0.08
21,TGGACCACGTGTTTAG,0.05
22,TTAGTCACGTGATAGT,0.17
23,TGGGACACGTGGGACG,-0.13

row,Sequence,relative binding free energy [kcal/mol]
1,CGGGACACGTGTAGTT,0.09
2,ATGCGCACGTGAGGTA,0.04
3,GCATACACGTGGTTGT,0.04
4,GAAGGCACGTGATTTT,0.07
5,ATTGGCACGTGGCAGA,-0.14
6,AGTTTCACGTGGAGGC,0.23
7,TATGACACGTGATGGA,0.22
8,TAGTGCACGTGGGCCG,-0.24
9,TCGGGCACGTGGGCGC,-0.25
10,TAAGGCACGTGAGTAG,0.06
11,TATTGCACGTGGGAGA,-0.07
12,AGGGTCACGTGAAGCA,0.26
13,TGCGGCACGTGGAGCT,-0.13
14,TGCGGCACGTGTCAAG,-0.08
15,GTTAACACGTGGCGGA,0.04
16,TGTGGCACGTGGACAT,-0.15
17,TGCGTCACGTGTTTCG,0
18,TATAGCACGTGCGGTT,-0.1
19,TTGAGCACGTGTGGTA,0.02
20,TTTTACACGTGTACTT,0.16
21,GTCTGCACGTGCGAGT,0.08
22,GTGTCCACGTGGTTTT,0.1
23,GTATTCACGTGGAGTA,0.33

row,Sequence,relative binding free energy [kcal/mol]
1,TGTTTCACGTGGCCTG,0.07
2,GCTGTCACGTGTGATT,0.36
3,GTAGTCACGTGATGGT,0.31
4,TAGTACACGTGGTGCA,0.13
5,TGTGACACGTGATTAG,0.04
6,TTAGTCACGTGGTCGG,0.01
7,GAGGCCACGTGTGAGT,-0.05
8,TTTCGCACGTGGGTGT,-0.11
9,TCGTACACGTGTTTGC,0.15
10,TTACTCACGTGCTGGT,0.3
11,TGTATCACGTGTTAGG,0.06
12,ATCGACACGTGGTCGT,0.04
13,TGTGGCACGTGGGAGA,-0.13
14,ATTATCACGTGTTTGC,-0.01
15,TTGCTCACGTGCAGTG,0.18
16,CGACTCACGTGGAGGG,0.16
17,TGTTCCACGTGTCGTT,0.11
18,GTTGGCACGTGCTTTT,-0.08
19,TAGGTCACGTGTGTCA,-0.07
20,AGGTTCACGTGGATGA,0.18
21,GCAAGCACGTGTTTGG,-0.05
22,CTAGTCACGTGTTGGT,0.1
23,CTGATCACGTGTTGTG,0.09
